# The list shows a part of the results.
# B1: Clec49 (Caenorhabditis elegans) (protein)
# chain: MTRLTLLLFGLLGAATAQTCNTGGIYNEQFNRCYQYFTAPAQFSFAEQQCNLLGGHLASVQNGQENALLQSNAANSFKRSNYSDYWIGATDLETSGTWKWTDPSVTFDYSNWQLGEPQSGSDCAIQDKGDGTWSAIGCTSYRPYVCVTPVIMTATCPPITTPIPTTCPTPAPCPIKQCVPSCDQGWTYFSPTDFCYRVYHGEKFNDAEASCVLLGGHLASIHSLTENTFVNNIASCGIKEGKYEHLAWIGMRKVGQDWVWTDGTPSDYFNWAPKQPDNPKKELCVQTAPDLSHDKWYENWNNLECNEVMRAYICKKASIHN
# What was measured:
# Test in all cases: glycan array binding signal (z-score within array); higher = stronger binding
# Conditions in all cases: glycan notation: IUPAC condensed, linker removed
# [1] = target: Neu5Ac(a2-6)Gal(b1-4)GlcNAc(b1-3)Gal(b1-4)GlcNAc(b1-3)GalNAc
# Method in brief: (§1)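 Glycan array binding is given as a within-array Z-score, which can be read as non-binding when negative. The arrays, 3228 of them, came from the Consortium for Functional Glycomics database and were retained only where the protein sequence was available. Z-scores were averaged across arrays of the same protein sequence at different concentrations or buffers and across linkers.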
# [2] = target: Neu5Ac(a2-6)Gal(b1-4)GlcNAc(b1-3)Gal(b1-4)GlcNAc(b1-3)[Neu5Ac(a2-6)Gal(b1-4)GlcNAc(b1-3)Gal(b1-4)GlcNAc(b1-6)]GalNAc
# Method in brief: as §1
# [3] = target: Neu5Ac(a2-6)Gal(b1-4)GlcNAc(b1-3)Gal(b1-4)GlcNAc(b1-6)[Gal(b1-3)]GalNAc
# Method in brief: as §1
# [4] = target: Neu5Ac(a2-6)Gal(b1-4)GlcNAc(b1-3)Gal(b1-4)[Fuc(a1-3)]GlcNAc(b1-3)Gal(b1-4)[Fuc(a1-3)]GlcNAc
# Method in brief: as §1
# [5] = target: Neu5Ac(a2-6)Gal(b1-4)GlcNAc(b1-3)GalNAc
# Method in brief: as §1
# [6] = target: Neu5Ac(a2-6)Gal(b1-4)GlcNAc(b1-3)[Neu5Ac(a2-6)Gal(b1-4)GlcNAc(b1-6)]GalNAc
# Method in brief: as §1
# [7] = target: Neu5Ac(a2-6)Gal(b1-4)GlcNAc(b1-6)GalNAc
# Method in brief: as §1
# [8] = target: Neu5Ac(a2-6)Gal(b1-4)GlcNAc(b1-6)[Gal(b1-3)GlcNAc(b1-3)]Gal(b1-4)Glc
# Method in brief: as §1
# [9] = target: Neu5Ac(a2-6)Gal(b1-4)GlcNAc(b1-6)[Gal(b1-3)]GalNAc
# Method in brief: as §1
# [10] = target: Neu5Ac(a2-6)Gal(b1-4)GlcNAc6S
# Method in brief: as §1
# Neu5Ac(a2-6)GalNAc = target: Neu5Ac(a2-6)GalNAc
# Method in brief: as §1
# [11] = target: Neu5Ac(a2-6)GalNAc(b1-4)GlcNAc
# Method in brief: as §1
# [12] = target: Neu5Ac(a2-6)GalNAc(b1-4)GlcNAc6S
# Method in brief: as §1
# [13] = target: Neu5Ac(a2-6)GlcNAc(b1-4)GlcNAc
# Method in brief: as §1
# [14] = target: Neu5Ac(a2-6)GlcNAc(b1-4)GlcNAc(b1-4)GlcNAc
# Method in brief: as §1
# Neu5Ac(a2-8)Neu5Ac = target: Neu5Ac(a2-8)Neu5Ac
# Method in brief: as §1
# [15] = target: Neu5Ac(a2-8)Neu5Ac(a2-3)Gal(b1-3)GalNAc(b1-4)[Neu5Ac(a2-3)]Gal(b1-4)Glc
# Method in brief: as §1
# [16] = target: Neu5Ac(a2-8)Neu5Ac(a2-3)Gal(b1-3)GalNAc(b1-4)[Neu5Ac(a2-8)Neu5Ac(a2-3)]Gal(b1-4)Glc
# Method in brief: as §1
# [17] = target: Neu5Ac(a2-8)Neu5Ac(a2-3)Gal(b1-4)Glc
# Method in brief: as §1
# [18] = target: Neu5Ac(a2-8)Neu5Ac(a2-3)Gal(b1-4)GlcNAc
# Method in brief: as §1
# [19] = target: Neu5Ac(a2-8)Neu5Ac(a2-3)[Gal(b1-3)GalNAc(b1-4)]Gal(b1-4)Glc
# Method in brief: as §1
# [20] = target: Neu5Ac(a2-8)Neu5Ac(a2-3)[GalNAc(b1-4)]Gal(b1-4)Glc
# Method in brief: as §1
# [21] = target: Neu5Ac(a2-8)Neu5Ac(a2-8)Neu5Ac
# Method in brief: as §1
# [22] = target: Neu5Ac(a2-8)Neu5Ac(a2-8)Neu5Ac(a2-3)Gal(b1-4)Glc
# Method in brief: as §1
# [23] = target: Neu5Ac(a2-8)Neu5Ac(a2-8)Neu5Ac(a2-3)[Gal(b1-3)GalNAc(b1-4)]Gal(b1-4)Glc
# Method in brief: as §1
# [24] = target: Neu5Ac(a2-8)Neu5Ac(a2-8)Neu5Ac(a2-3)[GalNAc(b1-4)]Gal(b1-4)Glc
# Method in brief: as §1
# [25] = target: Neu5Ac(a2-8)Neu5Ac(a2-8)Neu5Ac(a2-8)Neu5Ac(a2-3)[GalNAc(b1-4)]Gal(b1-4)Glc
# Method in brief: as §1
# [26] = target: Neu5Ac(a2-8)Neu5Gc(a2-3)Gal(b1-4)GlcNAc
# Method in brief: as §1
# [27] = target: Neu5Ac(b2-6)Gal(b1-4)GlcNAc
# Method in brief: as §1
# Neu5Ac(b2-6)GalNAc = target: Neu5Ac(b2-6)GalNAc
# Method in brief: as §1
# [28] = target: Neu5Ac9Ac(a2-3)Gal(b1-3)GlcNAc
# Method in brief: as §1
# [29] = target: Neu5Ac9Ac(a2-3)Gal(b1-4)GlcNAc
# Method in brief: as §1
# [30] = target: Neu5Ac9Ac(a2-6)Gal(b1-4)GlcNAc
# Method in brief: as §1
# [31] = target: Neu5Gc(a2-3)Gal(b1-3)GlcNAc
# Method in brief: as §1
# [32] = target: Neu5Gc(a2-3)Gal(b1-3)[Fuc(a1-4)]GlcNAc
# Method in brief: as §1
# Neu5Gc(a2-3)Gal(b1-4)Glc = target: Neu5Gc(a2-3)Gal(b1-4)Glc
# Method in brief: as §1
# [33] = target: Neu5Gc(a2-3)Gal(b1-4)GlcNAc
# Method in brief: as §1
# [34] = target: Neu5Gc(a2-3)Gal(b1-4)GlcNAc(b1-3)Gal(b1-4)GlcNAc(b1-2)Man(a1-3)[Neu5Gc(a2-3)Gal(b1-4)GlcNAc(b1-3)Gal(b1-4)GlcNAc(b1-2)Man(a1-6)]Man(b1-4)GlcNAc(b1-4)GlcNAc
# Method in brief: as §1
# [35] = target: Neu5Gc(a2-3)Gal(b1-4)[Fuc(a1-3)]GlcNAc
# Method in brief: as §1
# [36] = target: Neu5Gc(a2-6)Gal(b1-4)GlcNAc
# Method in brief: as §1
# Neu5Gc(a2-6)GalNAc = target: Neu5Gc(a2-6)GalNAc
# Method in brief: as §1
# [37] = target: Neu5Gc(a2-8)Neu5Ac(a2-3)Gal(b1-4)GlcNAc
# Method in brief: as §1
# [38] = target: Neu5Gc(a2-8)Neu5Gc(a2-3)Gal(b1-4)GlcNAc
# Method in brief: as §1
# [39] = target: Neu5Gc(a2-8)Neu5Gc(a2-3)Gal(b1-4)GlcNAc(b1-3)Gal(b1-4)GlcNAc
# Method in brief: as §1
# [40] = target: Neu5Gc(a2-8)Neu5Gc(a2-6)Gal(b1-4)GlcNAc
# Method in brief: as §1
# [41] = target: Neu5Gc(b2-6)Gal(b1-4)GlcNAc
# Method in brief: as §1
binder,measurement,setting,value
B1,glycan array binding signal (z-score),[1],-0.163
same,glycan array binding signal (z-score),[2],2.58
same,glycan array binding signal (z-score),[3],-0.105
same,glycan array binding signal (z-score),[4],0.181
same,glycan array binding signal (z-score),[5],-0.179
same,glycan array binding signal (z-score),[6],0.359
same,glycan array binding signal (z-score),[7],0.441
same,glycan array binding signal (z-score),[8],-0.304
same,glycan array binding signal (z-score),[9],-0.327
same,glycan array binding signal (z-score),[10],-0.845
same,glycan array binding signal (z-score),Neu5Ac(a2-6)GalNAc,-0.418
same,glycan array binding signal (z-score),[11],-0.566
same,glycan array binding signal (z-score),[12],0.538
same,glycan array binding signal (z-score),[13],0.25
same,glycan array binding signal (z-score),[14],0.16
same,glycan array binding signal (z-score),Neu5Ac(a2-8)Neu5Ac,-0.576
same,glycan array binding signal (z-score),[15],-0.084
same,glycan array binding signal (z-score),[16],0.324
same,glycan array binding signal (z-score),[17],-0.326
same,glycan array binding signal (z-score),[18],-0.339
same,glycan array binding signal (z-score),[19],-0.06
same,glycan array binding signal (z-score),[20],-0.424
same,glycan array binding signal (z-score),[21],-0.48
same,glycan array binding signal (z-score),[22],0.106
same,glycan array binding signal (z-score),[23],-0.077
same,glycan array binding signal (z-score),[24],0.055
same,glycan array binding signal (z-score),[25],-0.218
same,glycan array binding signal (z-score),[26],-0.059
same,glycan array binding signal (z-score),[27],-0.552
same,glycan array binding signal (z-score),Neu5Ac(b2-6)GalNAc,-0.483
same,glycan array binding signal (z-score),[28],0.178
same,glycan array binding signal (z-score),[29],-0.776
same,glycan array binding signal (z-score),[30],-0.201
same,glycan array binding signal (z-score),[31],-0.463
same,glycan array binding signal (z-score),[32],-0.422
same,glycan array binding signal (z-score),Neu5Gc(a2-3)Gal(b1-4)Glc,-0.481
same,glycan array binding signal (z-score),[33],-0.612
same,glycan array binding signal (z-score),[34],-0.103
same,glycan array binding signal (z-score),[35],0.229
same,glycan array binding signal (z-score),[36],0.43
same,glycan array binding signal (z-score),Neu5Gc(a2-6)GalNAc,0.335
same,glycan array binding signal (z-score),[37],-0.378
same,glycan array binding signal (z-score),[38],-0.037
same,glycan array binding signal (z-score),[39],-0.895
same,glycan array binding signal (z-score),[40],0.405
same,glycan array binding signal (z-score),[41],0.241

# Reference: the supplement of paper PMC8728848
